Experimental data published in the supplement of paper PMC10126150.
Sequences with one replicate were seen in a single cluster, so their values are uncertain.

Test system: ATP
Test: switch fluorescence ratio, 500 uM ATP over buffer (Cy3 cluster intensity, sum of 5 cycles each) (fold (ratio)); higher = stronger signal-on switching upon ATP binding; sequences stand for … in TCGTCGGCAGCGTCAGATGTGTATAAGAGACAGTTTTTTTTTTTTTTTTTTTTTTTTT…TC
Details: aptamer strand: ATP DNA aptamer (quencher-CACCTGGGGGAGTATTGCGGAGGAAGG + anchor), 100 nM annealed; ATP concentration: 500 uM; one replicate
How it was run: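 Five buffer/ATP imaging cycles were run on Cy3-labelled switching-strand clusters on a modified Illumina MiSeq flow-cell, with NaOH stripping and re-annealing between cycles. In each cycle, clusters annealed to 100 nM quencher-labelled ATP aptamer were imaged in selection buffer, then after 15 min with 500 uM ATP at 22 °C. Per cluster, the fluorescence ratio is summed target-cycle over summed buffer-cycle Cy3 intensity, averaged per switch-domain sequence. Only clusters within 100-1000 RFU were kept.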
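Also: ATP exposure 15 min at 22 °C before imaging.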

Which switch fluorescence ratio does the source give for ATCTGGTAGA here?
The switch fluorescence ratio was 1.01.

How did the switch fluorescence ratio turn out when ATCTGTCAAT was run?
Its switch fluorescence ratio is 1.21.

ATCTGTGTAT was tested. Which switch fluorescence ratio did it give?
Its switch fluorescence ratio is 0.999.

How did the switch fluorescence ratio turn out when ATCTGTTATT was run?
Its switch fluorescence ratio is 1.02.

ATCTGTTCGC was tested. Which switch fluorescence ratio did it give?
Its switch fluorescence ratio is 1.01.

With ATCTTGATAT as the sequence, how does the switch fluorescence ratio read?
Its switch fluorescence ratio is 0.972.

ATCTTGGGA was tested. Which switch fluorescence ratio did it give?
Its switch fluorescence ratio is 1.02.

ATCTTGTTAG was tested. Which switch fluorescence ratio did it give?
Its switch fluorescence ratio is 0.936.

ATCTTTCGG was tested. Which switch fluorescence ratio did it give?
Its switch fluorescence ratio is 1.03.

ATCTTTCTTT was tested. Which switch fluorescence ratio did it give?
The switch fluorescence ratio was 0.96.

ATGAAATCGG was tested. Which switch fluorescence ratio did it give?
Its switch fluorescence ratio is 0.972.

For ATGAACTTTT, which switch fluorescence ratio is on record?
The switch fluorescence ratio was 0.991.

How did the switch fluorescence ratio turn out when ATGACAATA was run?
Its switch fluorescence ratio is 0.963.

With ATGACAGGTT as the sequence, how does the switch fluorescence ratio read?
The switch fluorescence ratio was 0.945.

Which switch fluorescence ratio does the source give for ATGACCCCCC here?
The switch fluorescence ratio was 1.12.

Which switch fluorescence ratio does the source give for ATGACCGGTG here?
Its switch fluorescence ratio is 1.04.

For ATGACCTGGA, which switch fluorescence ratio is on record?
Its switch fluorescence ratio is 1.12.

How did the switch fluorescence ratio turn out when ATGACGATAA was run?
The switch fluorescence ratio was 1.03.

Which switch fluorescence ratio does the source give for ATGACTGACA here?
The switch fluorescence ratio was 1.14.

For ATGACTGCTG, which switch fluorescence ratio is on record?
The switch fluorescence ratio was 1.04.

For ATGACTTGT, which switch fluorescence ratio is on record?
The switch fluorescence ratio was 0.951.

For ATGAGAGGTC, which switch fluorescence ratio is on record?
The switch fluorescence ratio was 1.02.

How did the switch fluorescence ratio turn out when ATGAGCAGC was run?
Its switch fluorescence ratio is 0.999.

Which switch fluorescence ratio does the source give for ATGAGCAGTG here?
The switch fluorescence ratio was 0.99.

How did the switch fluorescence ratio turn out when ATGAGTGCAA was run?
The switch fluorescence ratio was 1.05.

How did the switch fluorescence ratio turn out when ATGAGTGTAT was run?
The switch fluorescence ratio was 0.984.

With ATGAGTTA as the sequence, how does the switch fluorescence ratio read?
Its switch fluorescence ratio is 0.989.

For ATGAGTTTCC, which switch fluorescence ratio is on record?
The switch fluorescence ratio was 1.02.

For ATGATAGAT, which switch fluorescence ratio is on record?
The switch fluorescence ratio was 0.999.

ATGATAGATG was tested. Which switch fluorescence ratio did it give?
The switch fluorescence ratio was 1.

For ATGATATGG, which switch fluorescence ratio is on record?
Its switch fluorescence ratio is 0.999.

ATGATCCTGA was tested. Which switch fluorescence ratio did it give?
The switch fluorescence ratio was 1.06.

ATGATCGACT was tested. Which switch fluorescence ratio did it give?
The switch fluorescence ratio was 1.03.

With ATGATCGCAC as the sequence, how does the switch fluorescence ratio read?
Its switch fluorescence ratio is 1.55.

Which switch fluorescence ratio does the source give for ATGATCTCAG here?
The switch fluorescence ratio was 0.989.

With ATGATGTCAG as the sequence, how does the switch fluorescence ratio read?
Its switch fluorescence ratio is 0.97.

With ATGATTAGCG as the sequence, how does the switch fluorescence ratio read?
The switch fluorescence ratio was 0.98.

For ATGATTCGAG, which switch fluorescence ratio is on record?
Its switch fluorescence ratio is 0.985.

With ATGATTTGTA as the sequence, how does the switch fluorescence ratio read?
The switch fluorescence ratio was 0.991.

With ATGATTTTCA as the sequence, how does the switch fluorescence ratio read?
The switch fluorescence ratio was 1.01.

With ATGCAGAGCA as the sequence, how does the switch fluorescence ratio read?
The switch fluorescence ratio was 0.99.

With ATGCATACAC as the sequence, how does the switch fluorescence ratio read?
Its switch fluorescence ratio is 1.22.

For ATGCATGGTC, which switch fluorescence ratio is on record?
The switch fluorescence ratio was 1.04.

ATGCATTCTA was tested. Which switch fluorescence ratio did it give?
Its switch fluorescence ratio is 1.05.

For ATGCATTGG, which switch fluorescence ratio is on record?
Its switch fluorescence ratio is 1.02.

ATGCCAC was tested. Which switch fluorescence ratio did it give?
The switch fluorescence ratio was 1.04.

Which switch fluorescence ratio does the source give for ATGCCCA here?
The switch fluorescence ratio was 0.99.

How did the switch fluorescence ratio turn out when ATGCCCGCGA was run?
Its switch fluorescence ratio is 1.65.

ATGCCGATTA was tested. Which switch fluorescence ratio did it give?
Its switch fluorescence ratio is 0.98.

Which switch fluorescence ratio does the source give for ATGCCGGGCC here?
The switch fluorescence ratio was 0.955.

How did the switch fluorescence ratio turn out when ATGCCTGATG was run?
Its switch fluorescence ratio is 0.97.

Which switch fluorescence ratio does the source give for ATGCGAAGCG here?
The switch fluorescence ratio was 0.926.

ATGCGACACC was tested. Which switch fluorescence ratio did it give?
Its switch fluorescence ratio is 1.07.

With ATGCGCTACG as the sequence, how does the switch fluorescence ratio read?
Its switch fluorescence ratio is 1.02.

ATGCGGAGGC was tested. Which switch fluorescence ratio did it give?
The switch fluorescence ratio was 0.983.

Which switch fluorescence ratio does the source give for ATGCGGCGGG here?
Its switch fluorescence ratio is 0.984.

With ATGCGGGTCT as the sequence, how does the switch fluorescence ratio read?
The switch fluorescence ratio was 0.989.

ATGCGGGTTG was tested. Which switch fluorescence ratio did it give?
Its switch fluorescence ratio is 1.04.

Which switch fluorescence ratio does the source give for ATGCGTAATC here?
The switch fluorescence ratio was 1.15.

ATGCGTCATA was tested. Which switch fluorescence ratio did it give?
The switch fluorescence ratio was 1.01.

With ATGCGTCGGT as the sequence, how does the switch fluorescence ratio read?
The switch fluorescence ratio was 1.

ATGCGTGGTT was tested. Which switch fluorescence ratio did it give?
Its switch fluorescence ratio is 0.98.

For ATGCTACTAA, which switch fluorescence ratio is on record?
The switch fluorescence ratio was 1.1.

ATGCTCACTG was tested. Which switch fluorescence ratio did it give?
The switch fluorescence ratio was 1.04.

How did the switch fluorescence ratio turn out when ATGCTGACCC was run?
The switch fluorescence ratio was 1.08.

With ATGCTGAGGG as the sequence, how does the switch fluorescence ratio read?
Its switch fluorescence ratio is 1.03.

With ATGCTGGTAC as the sequence, how does the switch fluorescence ratio read?
Its switch fluorescence ratio is 1.05.

Which switch fluorescence ratio does the source give for ATGCTTGCAG here?
The switch fluorescence ratio was 0.998.

Which switch fluorescence ratio does the source give for ATGCTTGGTC here?
Its switch fluorescence ratio is 1.04.

ATGCTTTCCT was tested. Which switch fluorescence ratio did it give?
The switch fluorescence ratio was 1.03.

ATGGAAGAGC was tested. Which switch fluorescence ratio did it give?
The switch fluorescence ratio was 1.02.

For ATGGAAGTCG, which switch fluorescence ratio is on record?
Its switch fluorescence ratio is 0.943.

How did the switch fluorescence ratio turn out when ATGGAATGTC was run?
Its switch fluorescence ratio is 0.968.

ATGGAATTGG was tested. Which switch fluorescence ratio did it give?
Its switch fluorescence ratio is 0.939.

Which switch fluorescence ratio does the source give for ATGGACAATT here?
Its switch fluorescence ratio is 0.963.

ATGGACTTAA was tested. Which switch fluorescence ratio did it give?
The switch fluorescence ratio was 0.984.

For ATGGAGATCG, which switch fluorescence ratio is on record?
Its switch fluorescence ratio is 0.977.

With ATGGAGGAGG as the sequence, how does the switch fluorescence ratio read?
Its switch fluorescence ratio is 0.98.

How did the switch fluorescence ratio turn out when ATGGAGGCAT was run?
Its switch fluorescence ratio is 1.01.

Which switch fluorescence ratio does the source give for ATGGAGGGA here?
The switch fluorescence ratio was 0.972.

ATGGAGGGC was tested. Which switch fluorescence ratio did it give?
The switch fluorescence ratio was 0.948.

For ATGGAGTAA, which switch fluorescence ratio is on record?
The switch fluorescence ratio was 1.01.

With ATGGATCTTC as the sequence, how does the switch fluorescence ratio read?
Its switch fluorescence ratio is 0.999.

How did the switch fluorescence ratio turn out when ATGGATTGCC was run?
The switch fluorescence ratio was 1.

ATGGCAAAT was tested. Which switch fluorescence ratio did it give?
The switch fluorescence ratio was 1.02.

For ATGGCAGAGG, which switch fluorescence ratio is on record?
The switch fluorescence ratio was 0.995.

With ATGGCATGCG as the sequence, how does the switch fluorescence ratio read?
Its switch fluorescence ratio is 0.955.

How did the switch fluorescence ratio turn out when ATGGCCACTA was run?
The switch fluorescence ratio was 0.99.

With ATGGCCGAAC as the sequence, how does the switch fluorescence ratio read?
Its switch fluorescence ratio is 1.14.

For ATGGCGCGGA, which switch fluorescence ratio is on record?
The switch fluorescence ratio was 1.01.

Which switch fluorescence ratio does the source give for ATGGCGTTGT here?
The switch fluorescence ratio was 1.05.

For ATGGCTACGA, which switch fluorescence ratio is on record?
The switch fluorescence ratio was 1.03.

For ATGGCTTGCG, which switch fluorescence ratio is on record?
The switch fluorescence ratio was 0.951.

Which switch fluorescence ratio does the source give for ATGGCTTTAT here?
The switch fluorescence ratio was 1.02.

Which switch fluorescence ratio does the source give for ATGGGATTTC here?
The switch fluorescence ratio was 0.99.

How did the switch fluorescence ratio turn out when ATGGGCTTAT was run?
The switch fluorescence ratio was 1.02.

How did the switch fluorescence ratio turn out when ATGGGGGTC was run?
Its switch fluorescence ratio is 1.02.

Which switch fluorescence ratio does the source give for ATGGGTCCTA here?
The switch fluorescence ratio was 0.99.

Which switch fluorescence ratio does the source give for ATGGTAC here?
Its switch fluorescence ratio is 1.24.

With ATGGTAGTG as the sequence, how does the switch fluorescence ratio read?
Its switch fluorescence ratio is 0.97.
